# In the supplement of paper PMC7335073:
# The full ranking holds about 4,100 sequences; the median of “relative CpG methylation activity (normalised to average over all NNNCGNNN flanks)” is about 0.94, and the highest 2% start at about 1.9. The list shows a part of the results.
# Molecular target: DNMT3B catalytic domain (mouse) (UniProt O88509)
# Assay: relative CpG methylation activity (normalised to average over all NNNCGNNN flanks) (relative (1 = mean)); higher = more methylation of the central CpG
# Settings: system: in vitro, murine catalytic domain; CpG state: hemimethylated substrate pool; residues: 558-859
# Description: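 Deep enzymology: a pool of dsDNA substrates with a central CpG flanked by 10 random nucleotides on each side was methylated by the murine DNMT3A or DNMT3B catalytic domain (0.8 mM SAM, 37 °C, 60 min). Methylation was then read out by hairpin ligation, bisulfite conversion and NGS. Values are the average methylation of each NNNCGNNN context (±3 flanks; the outer flanks are random and averaged over), normalised to the overall mean, so 1 = average activity.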
# UniProt O88509, sequence (O88509 558-859): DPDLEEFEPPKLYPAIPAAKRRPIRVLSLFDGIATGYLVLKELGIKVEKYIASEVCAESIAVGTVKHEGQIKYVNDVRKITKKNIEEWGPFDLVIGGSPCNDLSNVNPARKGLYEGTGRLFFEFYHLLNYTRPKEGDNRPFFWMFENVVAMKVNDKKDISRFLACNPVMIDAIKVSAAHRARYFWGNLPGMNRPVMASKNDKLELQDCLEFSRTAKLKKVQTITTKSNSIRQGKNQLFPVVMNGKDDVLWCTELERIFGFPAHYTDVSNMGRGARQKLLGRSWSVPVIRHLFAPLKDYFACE
row,Sequence,relative CpG methylation activity
1,GCTCGGGT,1.14
2,ATGCGAAA,1.09
3,GCACGAGT,1.4
4,AGCCGCGC,0.26
5,CGCCGATT,1.26
6,ACTCGTCG,0.617
7,AATCGACA,1.28
8,AAACGGTC,1.78
9,GGCCGAAA,0.914
10,GGGCGTGG,0.265
11,TCTCGTTT,0.417
12,GGCCGCAC,0.272
13,CTCCGGAA,1.23
14,AATCGGCA,1.74
15,TCTCGACG,1.31
16,CACCGGCC,1.34
17,GGCCGCTT,0.306
18,GGTCGACT,1.1
19,CAACGACG,1.33
20,CAACGCCT,1.59
21,CTGCGCTC,0.998
22,ACGCGTCT,0.514
23,AACCGTTG,0.158
24,GCACGGGC,1.25

row,Sequence,relative CpG methylation activity
1,CAGCGGAC,0.616
2,TACCGTGC,0.483
3,TGACGATG,1.02
4,TCTCGACA,1.3
5,TCCCGTAA,0.418
6,GCGCGCAG,0.323
7,CGACGCAG,0.407
8,TTACGGAT,1.5
9,AGGCGAAT,0.593
10,GCACGGTG,1.37
11,TTACGTGC,1.26
12,ATGCGTAA,0.779
13,AAGCGACC,0.837
14,CGTCGGAC,0.869
15,CGACGTCT,0.91
16,TCCCGTAT,0.542
17,GCTCGTGG,0.0817
18,GCACGGAA,1.06
19,CGTCGGGG,1.04
20,CGGCGGTC,0.675
21,TAACGGGG,1.53
22,TTGCGACT,1.25
23,AACCGGCT,1.12
24,ACGCGTAG,0.632

row,Sequence,relative CpG methylation activity
1,GGTCGCCA,0.481
2,TGGCGATG,0.694
3,CTCCGTAG,0.439
4,GGGCGCGC,0.249
5,TTGCGTAT,0.938
6,CACCGGGT,1.06
7,AGCCGTTA,0.122
8,TAACGGGT,1.52
9,CCCCGTTA,0.69
10,CTCCGCCC,1.37
11,GGTCGTTG,0.242
12,TGCCGCAG,0.216
13,AGGCGACT,0.402
14,AACCGTAT,0.17
15,AAGCGGCC,1.08
16,TCACGCGC,1.15
17,CTACGACC,1.82
18,TTGCGCTG,0.959
19,GACCGTTC,0.315
20,TCGCGTAA,0.737
21,CGGCGCTC,0.487
22,GATCGGAG,0.656
23,TTACGGCC,1.97
24,ATTCGCTA,1.04

row,Sequence,relative CpG methylation activity
1,GGACGTTC,0.877
2,TTCCGCTG,0.891
3,TGCCGGGT,0.798
4,GCTCGGGC,1.65
5,TCTCGGTC,1.69
6,GCTCGAAA,1.16
7,GCACGCCA,1.24
8,CAGCGAAG,0.716
9,TACCGAGA,1.42
10,AGTCGATG,0.995
11,TTTCGAAC,1.8
12,GCGCGGCG,1.15
13,ACTCGCGG,0.457
14,CAGCGTAA,0.639
15,AAACGTCG,1.07
16,AGTCGCAA,0.358
17,AATCGCGT,0.531
18,AATCGGTA,1.06
19,GTTCGTGT,0.187
20,GAGCGCTT,0.818
21,ACACGATA,1.75
22,TTTCGTCA,0.929
